The test system of one assay is HSkMC (human skeletal muscle cells). The experiment in a line: cytotoxicity call (relative viability < 0.9). The following applies: 10 µM.
A further assay has as its system HepG2. The experiment in a line: cytotoxicity call (relative viability < 0.9). The following applies: 10 µM.
In another assay the test system is S. aureus RN4220. The experiment in a line: growth inhibition call (relative growth <= 0.2). Particulars: 50 µM.

Some of the results follow.

Turning to `Cc1noc(C)c1NC(=O)Nc1ccc2c(c1)C(=O)N([C@@H](C)CO)C[C@@H](C)[C@@H](CN(C)C(=O)Nc1ccccc1)OCCCC[C@@H](C)O2`, the cytotoxicity call in the assay with HSkMC and in the assay with HepG2 was “inactive” in each case. Moreover, in the assay with S. aureus RN4220, the growth inhibition call is “inactive”.
As to `C[C@@H]1CN([C@@H](C)CO)C(=O)c2cc(N(C)C)ccc2O[C@@H](C)CCCCO[C@@H]1CN(C)C(=O)Nc1cccc2ccccc12`, the cytotoxicity call in the assay with HSkMC and in the assay with HepG2 was “inactive” each time. The growth inhibition call with S. aureus RN4220 was “inactive”.
For the molecule `O=C(NCc1nc2ccccc2[nH]1)C1=C[C@@H](c2ccc(Br)cc2)C[C@@H](OCc2ccc(CO)cc2)O1`, the cytotoxicity call with HSkMC was “inactive”. Besides, in the assay on HepG2, the cytotoxicity call is “active”. Also, in the assay with S. aureus RN4220, the growth inhibition call is “inactive”.
Turning to `C[C@@H]1CN([C@@H](C)CO)C(=O)c2cccc(NS(C)(=O)=O)c2O[C@H]1CN(C)Cc1ccc(C(=O)O)cc1`, the cytotoxicity call in the assay with HSkMC and in the assay on HepG2 was “inactive” throughout. Moreover, the growth inhibition call in the assay with S. aureus RN4220 is “inactive”.
As for `C[C@H](CO)N1C[C@H](C)[C@H](CN(C)Cc2ccc(Cl)c(Cl)c2)Oc2ccc(NC(=O)Nc3cccc4ccccc34)cc2C1=O`, the cytotoxicity call with HSkMC was “inactive”. Besides, in the assay on HepG2, the cytotoxicity call was “active”. Further, the growth inhibition call with S. aureus RN4220 was “inactive”.
As for `C[C@H](CO)N1C[C@H](C)[C@H](CN(C)CC2CCCCC2)OCCCC[C@H](C)Oc2ccc(NC(=O)CCCCCC(=O)Nc3ccccc3N)cc2C1=O`, the cytotoxicity call in the assay with HSkMC and in the assay with HepG2 was “inactive” in each case. In the assay with S. aureus RN4220, the growth inhibition call is “inactive”.
Regarding `CN1c2ccccc2[C@@H](NCCCCCCC(=O)Nc2ccccc2N)c2ccc(Cl)cc2S1(=O)=O`, the cytotoxicity call with HSkMC and in the assay on HepG2 was “inactive” in each case. In addition, the growth inhibition call with S. aureus RN4220 was “inactive”.
In the case of `CC(C)OC(=O)C(C)(C)Oc1ccc(C(=O)c2ccc(Cl)cc2)cc1`, the cytotoxicity call with HSkMC and with HepG2 was “inactive” each time. Moreover, the growth inhibition call with S. aureus RN4220 is “inactive”.
As for `Cc1ccc(S(=O)(=O)Nc2ccc3c(c2)C(=O)N([C@H](C)CO)C[C@H](C)[C@H](CN(C)S(C)(=O)=O)O3)cc1`, the cytotoxicity call with HSkMC and in the assay with HepG2 was “inactive” throughout. In the assay with S. aureus RN4220, the growth inhibition call is “inactive”.

Values taken from the antibiotic and cytotoxicity screens of Wong et al. (2023).
